Source: the supplement of paper PMC8728848
The list shows a part of the results.

Assays:
Experiment in all cases: glycan array binding signal (z-score within array); higher = stronger binding
Details in all cases: glycan notation: IUPAC condensed, linker removed
[1] = biological target: Gal(a1-4)Gal(b1-4)GlcNAc
Summary of the method: (§1)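 From the Consortium for Functional Glycomics database, 3228 arrays were curated, keeping only those whose protein sequence was available. Binding is given as a within-array Z-score averaged across arrays sharing a protein sequence and across linkers. Negative Z-scores can be read as non-binding.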

[2] = biological target: Gal(a1-4)Gal(b1-4)GlcNAc(b1-2)Man(a1-3)[Gal(a1-4)Gal(b1-4)GlcNAc(b1-2)Man(a1-6)]Man(b1-4)GlcNAc(b1-4)GlcNAc
Summary of the method: as §1

[3] = biological target: Gal(a1-4)Gal(b1-4)GlcNAc(b1-3)Gal(b1-4)Glc
Summary of the method: as §1

[4] = biological target: Gal(a1-4)GlcNAc
Summary of the method: as §1

[5] = biological target: Gal(a1-6)Glc
Summary of the method: as §1

[6] = biological target: Gal(b1-2)Gal
Summary of the method: as §1

[7] = biological target: Gal(b1-3)Gal
Summary of the method: as §1

[8] = biological target: Gal(b1-3)Gal(b1-4)GlcNAc
Summary of the method: as §1

[9] = biological target: Gal(b1-3)Gal(b1-4)GlcNAc(b1-2)Man(a1-3)[Gal(b1-3)Gal(b1-4)GlcNAc(b1-2)Man(a1-6)]Man(b1-4)GlcNAc(b1-4)GlcNAc
Summary of the method: as §1

[10] = biological target: Gal(b1-3)GalNAc
Summary of the method: as §1

[11] = biological target: Gal(b1-3)GalNAc(a1-3)[Fuc(a1-2)]Gal(b1-4)Glc
Summary of the method: as §1

[12] = biological target: Gal(b1-3)GalNAc(a1-3)[Fuc(a1-2)]Gal(b1-4)GlcNAc
Summary of the method: as §1

[13] = biological target: Gal(b1-3)GalNAc(b1-3)Gal(a1-4)Gal(b1-4)Glc
Summary of the method: as §1

[14] = biological target: Gal(b1-3)GalNAc(b1-4)Gal(b1-4)Glc
Summary of the method: as §1

[15] = biological target: Gal(b1-3)GalNAc(b1-4)[Neu5Ac(a2-3)]Gal(b1-4)Glc
Summary of the method: as §1

[16] = biological target: Gal(b1-3)GlcNAc
Summary of the method: as §1

[17] = biological target: Gal(b1-3)GlcNAc(a1-3)Gal(b1-4)GlcNAc
Summary of the method: as §1

[18] = biological target: Gal(b1-3)GlcNAc(a1-6)Gal(b1-4)GlcNAc
Summary of the method: as §1

[19] = biological target: Gal(b1-3)GlcNAc(b1-2)Man(a1-3)[Gal(b1-3)GlcNAc(b1-2)Man(a1-6)]Man(b1-4)GlcNAc(b1-4)GlcNAc
Summary of the method: as §1

[20] = biological target: Gal(b1-3)GlcNAc(b1-2)Man(a1-3)[Gal(b1-3)GlcNAc(b1-2)Man(a1-6)]Man(b1-4)GlcNAc(b1-4)[Fuc(a1-6)]GlcNAc
Summary of the method: as §1

[21] = biological target: Gal(b1-3)GlcNAc(b1-2)Man(a1-3)[GlcNAc(b1-4)][Gal(b1-3)GlcNAc(b1-2)Man(a1-6)]Man(b1-4)GlcNAc(b1-4)GlcNAc
Summary of the method: as §1

[22] = biological target: Gal(b1-3)GlcNAc(b1-2)[Gal(b1-3)GlcNAc(b1-6)]Man(a1-6)[Gal(b1-3)GlcNAc(b1-2)Man(a1-3)]Man(b1-4)GlcNAc(b1-4)GlcNAc
Summary of the method: as §1

[23] = biological target: Gal(b1-3)GlcNAc(b1-3)Gal(b1-3)GlcNAc
Summary of the method: as §1

[24] = biological target: Gal(b1-3)GlcNAc(b1-3)Gal(b1-4)Glc
Summary of the method: as §1

[25] = biological target: Gal(b1-3)GlcNAc(b1-3)Gal(b1-4)GlcNAc
Summary of the method: as §1

[26] = biological target: Gal(b1-3)GlcNAc(b1-3)Gal(b1-4)GlcNAc(b1-6)[Gal(b1-3)GlcNAc(b1-3)]Gal(b1-4)Glc
Summary of the method: as §1

[27] = biological target: Gal(b1-3)GlcNAc(b1-3)Gal(b1-4)[Fuc(a1-3)]GlcNAc(b1-6)[Gal(b1-3)GlcNAc(b1-3)]Gal(b1-4)Glc
Summary of the method: as §1

[28] = biological target: Gal(b1-3)GlcNAc(b1-3)GalNAc
Summary of the method: as §1

[29] = biological target: Gal(b1-3)GlcNAc(b1-6)Gal(b1-4)GlcNAc
Summary of the method: as §1

[30] = biological target: Gal(b1-3)GlcNAc(b1-6)GalNAc
Summary of the method: as §1

B1: PitA (Streptococcus oralis), G3F8D8 (protein)
chain: MNIRFDFKKVQIIARRLVTLLAILFLCAPISLLNADSTTEPQTTLHKTITPISGQDDKYELSLDITSKLGTETQTDPLDVVLVADLSGSMQNQDVQSFDGRTISRIDALKNTLRGTNGRKGLIDTILSNSNNRLSMVGFGGKIDNKKVDQYWDGNKWRLFRPYWPYERMTKYYDGVSPWDDANTILGWSNNARAAKTAVYNMSIAGGNSIGTESGIGTGTNIGAGLTLANQLMGSARSNAKKVVILLSDGFANMVYDANGYTIYNYNNEDPNIETAPQWFWDRLNNNLNSLSYSLAPTLDGFYSIKFRYSNNVDSITSLQYYMRQHNASIPNEIFSANDEDQLRDSFKDITDKILPLGIHHVSIKDVLSKYVQLLPNGSSEFRVVKEKDGSSEILIENQVTFDTKTTSEGLVEVTAKFSPNYSLEDGARYVLKFTVTSSQEALDAIAGDKKLEAGDAEGSDVNKLYSNKGASVTYSYGIGNSQTKTKEYSDNPTFKPSDPLTVPVEVEWQGVTGARTVITADQPSNVELKLVQKNKNGGSDNQDYRKTNVNVSKNVSNETRNFEKVAKGYQYDLIAPDVPAFTKEIKNVGTESKPSFKVIYKQLPSLTIKKVLEAENNLNKEFRIKVKLTSPDSKPLNGTFGEITVVNGEAEIRVEKRKRWEGILSYLPRGTHYKVEEEAASTNGYHVTYENQEGDLNKDETSIVTNHKLPSLSVTKKVTGVFANLLKSFKITINIRDAQNSPLNGTYTATVNNKRTPLQFTNGRASIDLNKDQTIKIYGLPLDSHYTVEEESNSSRGYQVSYENQEGKLDGDKSATVTNNKNSVPETGVDFLSSTLMLGIILPLGGIFFTILLGYLVVHRRK
glycan array binding signal (z-score) [1]: 0.041 | glycan array binding signal (z-score) [2]: 1.71 | glycan array binding signal (z-score) [3]: 0.077 | glycan array binding signal (z-score) [4]: -0.318 | glycan array binding signal (z-score) [5]: 0.157 | glycan array binding signal (z-score) [6]: -0.442 | glycan array binding signal (z-score) [7]: -0.7 | glycan array binding signal (z-score) [8]: -0.462 | glycan array binding signal (z-score) [9]: -0.561 | glycan array binding signal (z-score) [10]: -0.247 | glycan array binding signal (z-score) [11]: 0.341 | glycan array binding signal (z-score) [12]: -0.606 | glycan array binding signal (z-score) [13]: 0.303 | glycan array binding signal (z-score) [14]: -0.576 | glycan array binding signal (z-score) [15]: -0.464 | glycan array binding signal (z-score) [16]: -0.71 | glycan array binding signal (z-score) [17]: -0.324 | glycan array binding signal (z-score) [18]: -0.696 | glycan array binding signal (z-score) [19]: -0.097 | glycan array binding signal (z-score) [20]: -0.117 | glycan array binding signal (z-score) [21]: 1.74 | glycan array binding signal (z-score) [22]: -0.137 | glycan array binding signal (z-score) [23]: -0.226 | glycan array binding signal (z-score) [24]: -0.108 | glycan array binding signal (z-score) [25]: -0.282 | glycan array binding signal (z-score) [26]: -0.571 | glycan array binding signal (z-score) [27]: -0.53 | glycan array binding signal (z-score) [28]: -0.204 | glycan array binding signal (z-score) [29]: -0.172 | glycan array binding signal (z-score) [30]: -0.442
